According to the supplement of paper PMC8728848:
This is one part of the list.

Experiments:
Assay in all cases: glycan array binding signal (z-score within array); higher = stronger binding
Settings in all cases: glycan notation: IUPAC condensed, linker removed
[1] = target: Man(a1-2)Man(a1-3)[Man(a1-3)[Man(a1-6)]Man(a1-6)]Man(b1-4)GlcNAc(b1-4)GlcNAc
Summary of the method: (§1)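 Negative Z-scores can be read as non-binding. The Z-score is calculated within each array and then averaged across arrays of one protein sequence at different concentrations or buffers and across linkers. Arrays, 3228 in all, were curated from the Consortium for Functional Glycomics database and kept only where the protein sequence was available.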

[2] = target: Man(a1-2)Man(a1-3)[Man(a1-6)]Man(a1-6)[Man(a1-2)Man(a1-3)]Man(b1-4)GlcNAc(b1-4)GlcNAc
Summary of the method: as §1

[3] = target: Man(a1-2)Man(a1-6)[Man(a1-3)]Man(a1-6)[Man(a1-2)Man(a1-2)Man(a1-3)]Man
Summary of the method: as §1

[4] = target: Man(a1-2)Man(a1-6)[Man(a1-3)]Man(a1-6)[Man(a1-2)Man(a1-2)Man(a1-3)]Man(b1-4)GlcNAc(b1-4)GlcNAc
Summary of the method: as §1

Man(a1-3)[Man(a1-6)]Man = target: Man(a1-3)[Man(a1-6)]Man
Summary of the method: as §1

[5] = target: Man(a1-3)[Man(a1-6)]Man(a1-6)[Man(a1-2)Man(a1-3)]Man(b1-4)GlcNAc(b1-4)GlcNAc
Summary of the method: as §1

[6] = target: Man(a1-3)[Man(a1-6)]Man(a1-6)[Man(a1-3)]Man
Summary of the method: as §1

[7] = target: Man(a1-3)[Man(a1-6)]Man(a1-6)[Man(a1-3)]Man(b1-4)GlcNAc(b1-4)GlcNAc
Summary of the method: as §1

[8] = target: Man(a1-3)[Man(a1-6)]Man(b1-4)GlcNAc(b1-4)GlcNAc
Summary of the method: as §1

[9] = target: Man(a1-3)[Man(a1-6)]Man(b1-4)GlcNAc(b1-4)[Fuc(a1-6)]GlcNAc
Summary of the method: as §1

Man(a1-6)Man = target: Man(a1-6)Man
Summary of the method: as §1

Man(b1-4)GlcNAc = target: Man(b1-4)GlcNAc
Summary of the method: as §1

MurNAc(b1-4)GlcNAc = target: MurNAc(b1-4)GlcNAc
Summary of the method: as §1

Neu5Ac(a2-3)Gal = target: Neu5Ac(a2-3)Gal
Summary of the method: as §1

[10] = target: Neu5Ac(a2-3)Gal(b1-3)GalNAc
Summary of the method: as §1

[11] = target: Neu5Ac(a2-3)Gal(b1-3)GalNAc(b1-3)Gal(a1-4)Gal(b1-4)Glc
Summary of the method: as §1

[12] = target: Neu5Ac(a2-3)Gal(b1-3)GalNAc(b1-4)[Neu5Ac(a2-3)]Gal(b1-4)Glc
Summary of the method: as §1

[13] = target: Neu5Ac(a2-3)Gal(b1-3)GalNAc(b1-4)[Neu5Ac(a2-8)Neu5Ac(a2-3)]Gal(b1-4)Glc
Summary of the method: as §1

[14] = target: Neu5Ac(a2-3)Gal(b1-3)GalNAc6S
Summary of the method: as §1

[15] = target: Neu5Ac(a2-3)Gal(b1-3)GlcNAc
Summary of the method: as §1

[16] = target: Neu5Ac(a2-3)Gal(b1-3)GlcNAc(b1-2)Man
Summary of the method: as §1

[17] = target: Neu5Ac(a2-3)Gal(b1-3)GlcNAc(b1-2)Man(a1-3)[GlcNAc(b1-4)][Neu5Ac(a2-3)Gal(b1-3)GlcNAc(b1-2)Man(a1-6)]Man(b1-4)GlcNAc(b1-4)GlcNAc
Summary of the method: as §1

[18] = target: Neu5Ac(a2-3)Gal(b1-3)GlcNAc(b1-2)Man(a1-3)[Neu5Ac(a2-3)Gal(b1-3)GlcNAc(b1-2)Man(a1-6)]Man(b1-4)GlcNAc(b1-4)GlcNAc
Summary of the method: as §1

[19] = target: Neu5Ac(a2-3)Gal(b1-3)GlcNAc(b1-3)Gal(b1-3)GlcNAc
Summary of the method: as §1

[20] = target: Neu5Ac(a2-3)Gal(b1-3)GlcNAc(b1-3)Gal(b1-4)GlcNAc
Summary of the method: as §1

[21] = target: Neu5Ac(a2-3)Gal(b1-3)GlcNAc(b1-3)GalNAc
Summary of the method: as §1

[22] = target: Neu5Ac(a2-3)Gal(b1-3)GlcNAc(b1-4)Gal(b1-4)Glc
Summary of the method: as §1

[23] = target: Neu5Ac(a2-3)Gal(b1-3)GlcNAc(b1-6)GalNAc
Summary of the method: as §1

[24] = target: Neu5Ac(a2-3)Gal(b1-3)GlcNAc6S
Summary of the method: as §1

[25] = target: Neu5Ac(a2-3)Gal(b1-3)[Fuc(a1-4)]GlcNAc
Summary of the method: as §1

[26] = target: Neu5Ac(a2-3)Gal(b1-3)[Fuc(a1-4)]GlcNAc(b1-3)Gal(b1-3)[Fuc(a1-4)]GlcNAc
Summary of the method: as §1

[27] = target: Neu5Ac(a2-3)Gal(b1-3)[Fuc(a1-4)]GlcNAc(b1-3)Gal(b1-4)[Fuc(a1-3)]GlcNAc
Summary of the method: as §1

[28] = target: Neu5Ac(a2-3)Gal(b1-3)[GlcNAc(b1-6)]GalNAc
Summary of the method: as §1

[29] = target: Neu5Ac(a2-3)Gal(b1-3)[Neu5Ac(a2-3)Gal(b1-4)]GlcNAc
Summary of the method: as §1

[30] = target: Neu5Ac(a2-3)Gal(b1-3)[Neu5Ac(a2-6)]GalNAc
Summary of the method: as §1

[31] = target: Neu5Ac(a2-3)Gal(b1-3)[Neu5Ac(a2-6)]GlcNAc(b1-3)[Fuc(a1-3)[Gal(b1-4)]GlcNAc(b1-6)]Gal(b1-4)Glc
Summary of the method: as §1

[32] = target: Neu5Ac(a2-3)Gal(b1-3)]Neu5Ac(a2-3)Gal(b1-4)]GlcNAc
Summary of the method: as §1

Neu5Ac(a2-3)Gal(b1-4)Glc = target: Neu5Ac(a2-3)Gal(b1-4)Glc
Summary of the method: as §1

[33] = target: Neu5Ac(a2-3)Gal(b1-4)GlcNAc
Summary of the method: as §1

[34] = target: Neu5Ac(a2-3)Gal(b1-4)GlcNAc(b1-2)Man
Summary of the method: as §1

[35] = target: Neu5Ac(a2-3)Gal(b1-4)GlcNAc(b1-2)Man(a1-3)[GlcNAc(b1-2)Man(b1-4)GlcNAc(b1-2)Man(a1-6)]Man(b1-4)GlcNAc(b1-4)GlcNAc
Summary of the method: as §1

[36] = target: Neu5Ac(a2-3)Gal(b1-4)GlcNAc(b1-2)Man(a1-3)[GlcNAc(b1-4)][Neu5Ac(a2-3)Gal(b1-4)GlcNAc(b1-2)Man(a1-6)]Man(b1-4)GlcNAc(b1-4)GlcNAc
Summary of the method: as §1

[37] = target: Neu5Ac(a2-3)Gal(b1-4)GlcNAc(b1-2)Man(a1-3)[Neu5Ac(a2-3)Gal(b1-4)GlcNAc(b1-2)Man(a1-6)]Man(b1-4)GlcNAc(b1-4)GlcNAc
Summary of the method: as §1

[38] = target: Neu5Ac(a2-3)Gal(b1-4)GlcNAc(b1-2)Man(a1-3)[Neu5Ac(a2-3)Gal(b1-4)GlcNAc(b1-2)Man(a1-6)]Man(b1-4)GlcNAc(b1-4)[Fuc(a1-6)]GlcNAc
Summary of the method: as §1

[39] = target: Neu5Ac(a2-3)Gal(b1-4)GlcNAc(b1-2)Man(a1-3)[Neu5Ac(a2-6)Gal(b1-4)GlcNAc(b1-2)Man(a1-6)]Man(b1-4)GlcNAc(b1-4)GlcNAc
Summary of the method: as §1

B1: Nictaba (Nicotiana tabacum), Q94EW1 (protein)
chain: MQGQWIAARDLSITWVDNPQYWTWKTVDPNIEVAELRRVAWLDIYGKIETKNLIRKTSYAVYLVFKLTDNPRELERATASLRFVNEVAEGAGIEGTTVFISKKKKLPGELGRFPHLRSDGWLEIKLGEFFNNLGEDGEVEMRLMEINDKTWKSGIIVKGFDIRPN
- glycan array binding signal (z-score) [1]: 4.38
- glycan array binding signal (z-score) [2]: 4.07
- glycan array binding signal (z-score) [3]: -0.321
- glycan array binding signal (z-score) [4]: 4.83
- glycan array binding signal (z-score) (Man(a1-3)[Man(a1-6)]Man): -0.279
- glycan array binding signal (z-score) [5]: 6.51
- glycan array binding signal (z-score) [6]: -0.261
- glycan array binding signal (z-score) [7]: 4.21
- glycan array binding signal (z-score) [8]: 3.44
- glycan array binding signal (z-score) [9]: 2.71
- glycan array binding signal (z-score) (Man(a1-6)Man): -0.252
- glycan array binding signal (z-score) (Man(b1-4)GlcNAc): -0.277
- glycan array binding signal (z-score) (MurNAc(b1-4)GlcNAc): -0.388
- glycan array binding signal (z-score) (Neu5Ac(a2-3)Gal): -0.261
- glycan array binding signal (z-score) [10]: -0.288
- glycan array binding signal (z-score) [11]: -0.219
- glycan array binding signal (z-score) [12]: -0.234
- glycan array binding signal (z-score) [13]: -0.222
- glycan array binding signal (z-score) [14]: -0.281
- glycan array binding signal (z-score) [15]: -0.251
- glycan array binding signal (z-score) [16]: -0.197
- glycan array binding signal (z-score) [17]: -0.379
- glycan array binding signal (z-score) [18]: -0.294
- glycan array binding signal (z-score) [19]: -0.225
- glycan array binding signal (z-score) [20]: -0.267
- glycan array binding signal (z-score) [21]: -0.295
- glycan array binding signal (z-score) [22]: -0.387
- glycan array binding signal (z-score) [23]: -0.39
- glycan array binding signal (z-score) [24]: -0.25
- glycan array binding signal (z-score) [25]: -0.284
- glycan array binding signal (z-score) [26]: -0.277
- glycan array binding signal (z-score) [27]: -0.268
- glycan array binding signal (z-score) [28]: -0.389
- glycan array binding signal (z-score) [29]: -0.271
- glycan array binding signal (z-score) [30]: -0.286
- glycan array binding signal (z-score) [31]: -0.39
- glycan array binding signal (z-score) [32]: -0.388
- glycan array binding signal (z-score) (Neu5Ac(a2-3)Gal(b1-4)Glc): -0.278
- glycan array binding signal (z-score) [33]: -0.189
- glycan array binding signal (z-score) [34]: -0.381
- glycan array binding signal (z-score) [35]: 0.257
- glycan array binding signal (z-score) [36]: -0.37
- glycan array binding signal (z-score) [37]: 1.23
- glycan array binding signal (z-score) [38]: 1.7
- glycan array binding signal (z-score) [39]: 0.039
